Measured values published in PubChem BioAssay AID1508624 (National Center for Advancing Translational Sciences (NCATS), 2021).
Out of some 48,000 compounds screened, about 120 (0.25%) were called active. Roughly 4% stayed inconclusive and do not appear here. Calls follow the shape of the dose curve; as a rule, active = well fitted activation curve with a large enough effect; inconclusive = small, poorly fitted or top-dose-only effect, or another doubt; inactive = no such curve, though single readings can be large or run the other way. The list shows a part of the results.

experiment: Primary qHTS for Identification of Small Molecule Activators of Huntingtin-Antisense Promoter Activity; conditions: HEK293 HTT-AS promoter firefly luciferase reporter (activity 0% = vehicle and -100% = no light), 24 h; series mostly up to 57.5 µM; activity change, positive = activation: at the top concentration; also: nearly all actives have a fitted effect of over 55% in size
How it was run: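 HEK293 cells carrying firefly luciferase reporters were seeded at 2,500 per well in Opti-MEM and cultured for 24 h. They were then treated with compounds at up to 57.5 uM final for 24 h at 37 degrees C before Dual-Glo luminescence readout.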

SMILES	activity change, positive = activation
CCC[C@H](N[C@@H](C)C(=O)N1[C@H](C(=O)O)C[C@@H]2CCCC[C@@H]21)C(=O)OCC	inactive: -3.12%
CCc1ccc(S(=O)(=O)c2nnn3c2nc(N2CCN(CC)CC2)c2sccc23)cc1	inactive: -1.6%
CCOC(=O)c1ccc(N2C(=O)c3n[nH]c(-c4ccco4)c3C2c2cccc(F)c2)cc1 (configuration not stated)	inactive: -44.2%
Cc1ccc(NC(=O)CSc2nc3ccc(NC(=O)c4cccc(Cl)c4)cc3s2)c(C)c1	inactive: -25.6%
COc1ccccc1C(=O)Nc1ccc(-c2nc3cc(C)cc(C)c3o2)cc1	inactive: 14.8%
CCC(=O)N1CCc2cc(S(=O)(=O)NC(Cc3ccccc3)C(=O)Nc3ccc(Cl)cc3)ccc21 (configuration not stated)	inactive: -2.34%
COc1ccccc1C(=O)N1CCC(c2c[nH]c3ccccc23)(c2c[nH]c3ccccc23)CC1	inactive: -33.8%
O=C(CSc1nc(-c2ccccc2)[nH]c1-c1ccc(F)cc1)NC1CCCC1	inactive: -26.4%
COc1ccc(CCNC(=O)c2cc3cccc4c3n2CC(C)S4)c(OC)c1OC (configuration not stated)	inactive: -18.3%
CCCC(=O)Nc1c(C(=O)N2CCN(c3ccccc3)CC2)oc2ccccc12	inactive: -16.7%
CC(C)c1ccc(S(=O)(=O)Nc2cc3c(cc2NCc2ccccc2)n(C)c(=O)n3C)cc1	inactive: -36.7%
CCc1ccccc1NC(=O)C1=CC(c2ccc3c(c2)OCO3)=NS(=O)(=O)N1C	inactive: -14.1%
COc1ccccc1C(=O)CC1(O)C(=O)N(CC(N)=O)c2ccccc21 (configuration not stated)	inactive: -4.04%
CCOc1ccccc1NC(=O)Cn1c(=O)n(Cc2ccco2)c(=O)c2cccnc21	inactive: -17.6%
CC(C)(C)OC(=O)N1CCC(c2c(C(=O)O)cnn2-c2ccc(F)cc2F)CC1	inactive: 2.93%
O=C(CN1C(=O)COc2ccc(S(=O)(=O)N3CCCCCC3)cc21)N1CCN(c2cccc(Cl)c2)CC1	inactive: -28.7%
Cc1cccc(N2CCN(C(=O)CCNS(=O)(=O)c3ccc4c(c3)CCN4C(=O)C3CC3)CC2C)c1 (configuration not stated)	inactive: -37.4%
O=C(NC1CC(=O)N(c2ccccc2)C1)c1cccs1 (configuration not stated)	inactive: -8.85%
c1ccc(CNc2ncnc3[nH]ncc23)cc1	inactive: -23.9%
CCOC(=O)N1CCc2c(sc3c2c(=O)n(CCc2ccccc2)c(=O)n3Cc2ccc(C)cc2C)C1	inactive: -7.63%
COc1ccc(NS(=O)(=O)c2ccc(N)cc2)nn1	inactive: -5.98%
Nc1ccc(C(=O)NCC(=O)O)cc1	inactive: -17.1%
COc1ccc(-c2nc(CCNC(=O)Cc3ccc(F)cc3)cs2)cc1	inactive: -12.2%
CSc1ccc(CCNC(=O)c2ccc3c(c2)nc2n3CCC(C)C2)cc1 (configuration not stated)	inactive: -0.502%

SMILES	activity change, positive = activation
CCOCCc1nn2c(=O)cc(COC(=O)c3ccccc3NC(=O)c3cccs3)nc2s1	inactive: -7.98%
CCc1ccccc1NC(=O)N1CC(CC)Oc2ccc(Cl)cc21 (configuration not stated)	inactive: -26.2%
COc1ccc(N2CCN(C(=O)c3c(C)nn(-c4ccc(F)cc4)c3-n3cccc3)CC2)cc1	inactive: -0.0979%
O=C(C1CCCN(S(=O)(=O)c2cccs2)C1)N1CCN(c2ccccc2F)CC1 (configuration not stated)	inactive: -29.1%
CN1C(=O)c2ccccc2Sc2ccc(NC(=O)NCc3ccccc3Br)cc21	inactive: -43.5%
Cc1ccc(CN(Cc2cccn2-c2nnc(N3CCCC3=O)s2)C(=O)Nc2cc(C)cc(C)c2)cc1	inactive: -26.4%
Cc1nc2sc(C)c(C)n2c(=O)c1S(=O)(=O)NCCc1ccc(Cl)cc1	inactive: -14.2%
COc1ccc(-c2nc3c(c(SCC(=O)Nc4cc(C)cc(C)c4)n2)Cc2c(CO)cnc(C)c2O3)cc1	inactive: 3.34%
COc1cccc(CN2C(=O)C3(SCC(=O)N3c3ccc(F)cc3)c3ccccc32)c1 (configuration not stated)	inactive: -41.4%
Cc1ccc(CN(Cc2ccco2)C(=O)c2ccccc2Cl)o1	inactive: -20%
O=C(NCc1cccc(Cl)c1)c1ccc2c(c1)nc1n2CCOC1	inactive: -1.3%
CC(=O)c1ccc(NC(=O)c2cn(C)c(=O)c3ccccc23)cc1	inactive: 4.2%
CCCn1c2ccccc2c2cnn(CC(=O)Nc3ccccc3OC)c(=O)c21	inactive: -38.1%
O=C(c1ccc(C(=O)N2CCC(N3CCCC3)CC2)c(Nc2ccccc2)c1)N1CCC(N2CCCC2)CC1	inactive: -1.58%
COC(=O)c1ccccc1NC(=O)Cn1nc(C)c2nn(-c3ccc(Cl)cc3)c(C)c2c1=O	inactive: -26.2%
COc1cc(NC(=O)Nc2nnc(N3CCCCC3)s2)cc(OC)c1	inactive: -34.5%
Cc1cccc(NC(c2cccc(Cl)c2)c2ccc3cccnc3c2O)n1 (configuration not stated)	inactive: -38.5%
OC[C@H]1O[C@@H](Oc2ccc(O)cc2)[C@H](O)[C@@H](O)[C@@H]1O	inactive: -7.55%
Cc1ccc2c(CC(=O)Nc3ccc(S(=O)(=O)N4CCC(C)CC4)cc3)coc2c1	inactive: -12.1%
Cc1nn(-c2ccccc2)c2c1N(CCCC(=O)NCc1ccc(OC(C)C)cc1)C(=O)CS2	inactive: -43%
CC1CCc2nc3ccc(S(=O)(=O)N4CCC(C(=O)NCc5ccccc5Cl)CC4)cc3c(C(=O)O)c2C1 (configuration not stated)	inactive: -14.5%
O=c1c2[nH]c3ccccc3c2nc(SCc2ccccc2F)n1-c1ccc(F)cc1	inactive: -19%
CCc1ccccc1NC(=O)Cn1nc(-c2cc(C)ccc2C)c2c(c1=O)CCCC2	inactive: -14.9%
